According to patent publication US6540999B1, “Immunomodulatory methods using Lewisx oligosacchardies” (President and Fellows of Harvard College, priority 1996, dated 2003):

System: Human PBMC from B Lymphoma Patients
Assay: Proliferation of human PBMC from B lymphoma patients (3H-thymidine uptake)
Settings: 3H-thymidine uptake at 90 hours; LPS 20 μg/ml, HSA and conjugates 100 μg/ml

How did the “CPM, B-LYMPHOMA-1” value turn out when lipopolysaccharide [LPS] was run?
The value was 80424 CPM.

And the “CPM, B-LYMPHOMA-2” value?
The value was 1084 CPM.

What about the “CPM, B-LYMPHOMA-3” value of the same substance?
The value was 3424 CPM.
